Data published in US20170290876A1 (Novartis, published 2017).

T1: human VEGF (human, UniProt P15692 207-395, biotinylated (site not stated))
T1 construct: Biotinylated human VEGF generated internally; also called hVEGF; hVEGF-biotin
T1 sequence: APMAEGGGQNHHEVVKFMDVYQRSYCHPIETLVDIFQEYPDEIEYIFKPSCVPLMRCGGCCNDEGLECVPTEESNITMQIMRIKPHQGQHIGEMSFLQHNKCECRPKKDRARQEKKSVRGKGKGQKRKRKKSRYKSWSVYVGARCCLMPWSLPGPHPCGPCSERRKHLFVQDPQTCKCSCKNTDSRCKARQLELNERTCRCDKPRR

B1: NVS1f (Fab)
heavy: EVQLVESGGGLVQPGGSLRLSCTASGFSLTDYYYMTWVRQAPGKGLEWVGFIDPDDDPYYATWAKGRFTISRDNSKNTLYLQMNSLRAEDTAVYYCAGGDHNSGWGLDIWGQGTLVTVSSASTKGPSVFPLAPSSKSTSGGTAALGCLVKDYFPEPVTVSWNSGALTSGVHTFPAVLQSSGLYSLSSVVTVPSSSLGTQTYICNVNHKPSNTKVDKRVEPKSCGSGGG[sequence of about 100 residues not given]
light: [sequence of about 100 residues not given]GGGSEIVMTQSPSTLSASVGDRVIITCQASEIIHSWLAWYQQKPGKAPKLLIYLASTLASGVPSRFSGSGSGAEFTLTISSLQPDDFATYYCQNVYLASTNGANFGQGTKLTVLKRTVAAPSVFIFPPSDEQLKSGTASVVCLLNNFYPREAKVQWKVDNALQSGNSQESVTEQDSKDSTYSLSSTLTLSKADYEKHKVYACEVTHQGLSSPVTKSFNRGEC
notes: NVS4 with one HA tag at heavy chain C-terminus and one at light chain N-terminus
B2: NVS84T (designed binder)
chain: SDLGKKLLEAARAGQDDEVRILMANGADVNTADSTGWTPLHLAVPWGHLEIVEVLLKYGADVNAKDFQGWTPLHLAAAIGHQEIVEVLLKNGADVNAQDKFGKTAFDISIDNGNEDLAEILQKAAGSGGG[sequence of about 100 residues not given]SGGHHHHHH
notes: Anti-VEGF DARPin with HA tag at the C-terminus
B3: NVS83T (scFv)
scFv: MEIVMTQSPSTLSASVGDRVIITCQASEIIHSWLAWYQQKPGKAPKLLIYLASTLASGVPSRFSGSGSGAEFTLTISSLQPDDFATYYCQNVYLASTNGANFGQGTKLTVLGGGGGGSGGGGSGGGGSSGGGSEVQLVESGGGLVQPGGSLRLSCTASGFSLTDYYYMTWVRQAPGKGLEWVGFIDPDDDPYYATWAKGRFTISRDNSKNTLYLQMNSLRAEDTAVYYCAGGDHNSGWGLDIWGQGTLVTVSSGSGGG[sequence of about 100 residues not given]
notes: scFv of NVS4 with HA tag at the C-terminus
B4: NVS85T (designed binder)
chain: SDLGKKLLEAARAGQDDEVRILMANGADVNAFDWMGWTPLHLAAHEGHLEIVEVLLKNGADVNATDVSGYTPLHLAAADGHLEIVEVLLKYGADVNTKDNTGWTPLHLSADLGRLEIVEVLLKYGADVNAQDKFGKTAFDISIDNGNEDLAEILQKAAGSGGG[sequence of about 100 residues not given]SGGHHHHHH
notes: as for B2
B5: NVS1c (Fab)
heavy: [sequence of about 100 residues not given]GGGSEVQLVESGGGLVQPGGSLRLSCTASGFSLTDYYYMTWVRQAPGKGLEWVGFIDPDDDPYYATWAKGRFTISRDNSKNTLYLQMNSLRAEDTAVYYCAGGDHNSGWGLDIWGQGTLVTVSSASTKGPSVFPLAPSSKSTSGGTAALGCLVKDYFPEPVTVSWNSGALTSGVHTFPAVLQSSGLYSLSSVVTVPSSSLGTQTYICNVNHKPSNTKVDKRVEPKSCGS
light: [sequence of about 100 residues not given]GGGSEIVMTQSPSTLSASVGDRVIITCQASEIIHSWLAWYQQKPGKAPKLLIYLASTLASGVPSRFSGSGSGAEFTLTISSLQPDDFATYYCQNVYLASTNGANFGQGTKLTVLKRTVAAPSVFIFPPSDEQLKSGTASVVCLLNNFYPREAKVQWKVDNALQSGNSQESVTEQDSKDSTYSLSSTLTLSKADYEKHKVYACEVTHQGLSSPVTKSFNRGEC
notes: NVS4 with HA tags at the N-terminus of both chains
B6: NVS1d (Fab)
heavy: EVQLVESGGGLVQPGGSLRLSCTASGFSLTDYYYMTWVRQAPGKGLEWVGFIDPDDDPYYATWAKGRFTISRDNSKNTLYLQMNSLRAEDTAVYYCAGGDHNSGWGLDIWGQGTLVTVSSASTKGPSVFPLAPSSKSTSGGTAALGCLVKDYFPEPVTVSWNSGALTSGVHTFPAVLQSSGLYSLSSVVTVPSSSLGTQTYICNVNHKPSNTKVDKRVEPKSCGSGGG[sequence of about 100 residues not given]
light: EIVMTQSPSTLSASVGDRVIITCQASEIIHSWLAWYQQKPGKAPKLLIYLASTLASGVPSRFSGSGSGAEFTLTISSLQPDDFATYYCQNVYLASTNGANFGQGTKLTVLKRTVAAPSVFIFPPSDEQLKSGTASVVCLLNNFYPREAKVQWKVDNALQSGNSQESVTEQDSKDSTYSLSSTLTLSKADYEKHKVYACEVTHQGLSSPVTKSFNRGECGSGGG[sequence of about 100 residues not given]
notes: NVS4 with HA tags at the C-terminus of both chains
B7: NVS82T (antibody, human IgG1, kappa)
heavy: EVQLVESGGGLVQPGGSLRLSCTASGFSLTDYYYMTWVRQAPGKGLEWVGFIDPDDDPYYATWAKGRFTISRDNSKNTLYLQMNSLRAEDTAVYYCAGGDHNSGWGLDIWGQGTLVTVSSASTKGPSVFPLAPSSKSTSGGTAALGCLVKDYFPEPVTVSWNSGALTSGVHTFPAVLQSSGLYSLSSVVTVPSSSLGTQTYICNVNHKPSNTKVDKRV[sequence of human IgG1 Fc with changes not given]
light: EIVMTQSPSTLSASVGDRVIITCQASEIIHSWLAWYQQKPGKAPKLLIYLASTLASGVPSRFSGSGSGAEFTLTISSLQPDDFATYYCQNVYLASTNGANFGQGTKLTVLKRTVAAPSVFIFPPSDEQLKSGTASVVCLLNNFYPREAKVQWKVDNALQSGNSQESVTEQDSKDSTYSLSSTLTLSKADYEKHKVYACEVTHQGLSSPVTKSFNRGECGSGGG[sequence of about 100 residues not given]
notes: IgG of NVS4 with HA tag at light chain C-terminus
B8: NVS80T (Fc fusion)
chain: SDTGRPFVEMYSEIPEIIHMTEGRELVIPCRVTSPNITVTLKKFPLDTLIPDGKRIIWDSRKGFIISNATYKEIGLLTCEATVNGHLYKTNYLTHRQTNTIIDVVLSPSHGIELSVGEKLVLNCTARTELNVGIDFNWEYPSSKHQHKKLVNRDLKTQSGSEMKKFLSTLTIDGVTRSDQGLYTCAASSGLMTKKNSTFVRVHEK[sequence of human IgG1 Fc with changes not given]GSGGGGVYHREAISGKYYLTYAEAKAVCEFEGGHLATYKQLEAAQQIGFHVCAAGWMAKGRVGYPIVKPGPNCGFGKTGIIDYGIRLQRSERWDAYCYNPHA
notes: VEGF Fc trap with HA tag at the C-terminus
B9: NVS80 (Fc fusion)
chain: SDTGRPFVEMYSEIPEIIHMTEGRELVIPCRVTSPNITVTLKKFPLDTLIPDGKRIIWDSRKGFIISNATYKEIGLLTCEATVNGHLYKTNYLTHRQTNTIIDVVLSPSHGIELSVGEKLVLNCTARTELNVGIDFNWEYPSSKHQHKKLVNRDLKTQSGSEMKKFLSTLTIDGVTRSDQGLYTCAASSGLMTKKNSTFVRVHEK[sequence of human IgG1 Fc with changes not given]
notes: Untagged VEGF Fc trap

The binders below were run against T1, human VEGF (assay: Biacore SPR, hVEGF-biotin, 25 C).
B1 showed a Kd of 4.95 pM, a koff of 2.79e-05 s⁻¹ and a kon of 5.63e+06 M⁻¹ s⁻¹. Binder B2 has a Kd of 79.5 pM, a koff of 0.00126 s⁻¹ and a kon of 1.59e+07 M⁻¹ s⁻¹. Work on B3 yielded a Kd of 1.05 pM, a koff of 8.49e-05 s⁻¹ and a kon of 8.12e+07 M⁻¹ s⁻¹. Work on B4 yielded a Kd of 9.37 pM, a koff of 0.00011 s⁻¹ and a kon of 1.18e+07 M⁻¹ s⁻¹. B5 was tested, and the Kd was 13.3 pM, the koff was 2.83e-05 s⁻¹ and the kon was 2.13e+06 M⁻¹ s⁻¹. In the case of B6, the Kd is reported as 1.39 pM, the koff is reported as 2.36e-05 s⁻¹ and the kon is reported as 1.7e+07 M⁻¹ s⁻¹.

Each binder was assayed against T1, human VEGF (assay: Biacore SPR, hVEGF-biotin, 37 C).
B1 was tested, and the Kd was 4.64 pM, the koff was 2.43e-05 s⁻¹ and the kon was 5.23e+06 M⁻¹ s⁻¹. B7 gave a Kd of 0.375 pM, a koff of 3.19e-05 s⁻¹ and a kon of 8.52e+07 M⁻¹ s⁻¹. Binder B8 has a Kd of 0.335 pM, a koff of 9.06e-05 s⁻¹ and a kon of 2.71e+08 M⁻¹ s⁻¹. Binder B5 has a Kd of 13.9 pM, a koff of 2.81e-05 s⁻¹ and a kon of 2.03e+06 M⁻¹ s⁻¹. Binder B6 has a Kd of 2.63 pM, a koff of 2.58e-05 s⁻¹ and a kon of 9.78e+06 M⁻¹ s⁻¹.

These binders were tested against T1, human VEGF (assay: Biacore SPR, Hu VEGF-biotin, 25 C).
B2 showed a Kd of 79.5 pM, a koff of 0.00126 s⁻¹ and a kon of 1.59e+07 M⁻¹ s⁻¹. B3 was tested, and the Kd was 1.05 pM, the koff was 8.49e-05 s⁻¹ and the kon was 8.12e+07 M⁻¹ s⁻¹.

The binders below were run against T1, human VEGF (assay: Biacore SPR, Hu VEGF-biotin, 37 C).
B7 showed a Kd of 0.375 pM, a koff of 3.19e-05 s⁻¹ and a kon of 8.52e+07 M⁻¹ s⁻¹. Work on B9 yielded a Kd of 44 pM, a koff of 0.000115 s⁻¹ and a kon of 2.62e+06 M⁻¹ s⁻¹. For B8, the Kd was 0.335 pM, the koff was 9.06e-05 s⁻¹ and the kon was 2.71e+08 M⁻¹ s⁻¹.

The binders below were run against T1, human VEGF (assay: Biacore SPR; affinity of NVS80T against untagged NVS80).
B8 gave a Fold improvement of 131 fold.

The binders below were run against T1, human VEGF (assay: Biacore SPR; affinity of NVS82T against untagged NVS82).
B7 was tested, and the Fold improvement was 20.3 fold.

What follows are binders tested against T1, human VEGF (assay: Biacore SPR; affinity of NVS83T against untagged NVS83).
B3 was tested, and the Fold improvement was 6.4 fold.

These binders were tested against T1, human VEGF (assay: Biacore SPR; affinity of NVS84T against untagged NVS84).
For B2, the Fold improvement was 5.2 fold.
